In all, about 52,000 compounds went through this assay and about 4,300 (8.3%) were called active. Rule as the data show it: active = survival mostly below about 52% (no sharp cut-off); inactive = mostly above about 56%. This is one part of the list.

The test system of the assay is DeltatarO mutant. Put plainly: S. aureus survival, RN4220 and DeltatarO strains – OD600, teichoic acid synthesis inhibitors, primary screen (AID 463173). Particulars: S. aureus RN4220 wild type/DeltatarO growth, OD600, 18 h, hits give low values, screened at 18.75 µg/mL (by protocol).
In the case of `CCC(Sc1nc2ncccc2o1)C(=O)Nc1ccc(OC)c(OC)c1` (stereo unspecified), the survival is inactive: 79%.
The result for `COc1ccc(C2CC(=O)c3cc(-c4nc(-c5cccc(Cl)c5)cs4)c(=O)[nH]c3C2)cc1` (stereo unspecified) reads inactive: 94%; that for `CC(C)C(=O)Nc1sc2c(c1C(N)=O)CCCC2`, inactive: 77%; that for `Cc1ccc2c(=O)cc(C(=O)Nc3sc4c(c3C(=O)NCC3CCCO3)CCCC4)oc2c1` (stereo unspecified), inactive: 71%.
`O=S(=O)(c1ccc(Cl)cc1Cl)n1ccnc1`: the survival was inactive: 76%.
With `CSc1oc(-c2cccs2)nc1S(=O)(=O)c1ccc(Br)cc1`, the survival is inactive: 56%.
`COc1ccc(N2CCN(Cc3nnc(-c4ccc5c(c4)OCO5)o3)CC2)cc1`: the survival was inactive: 88%.
Next, `CCc1cccc(C)c1Nc1c(-c2ccsc2)nc2ncccn12`: inactive: 67%.
Next, `Cc1ccc2c(c1)c1c3n2CCN(C(=O)c2cccc(C(F)(F)F)c2)C3CCC1` (stereo unspecified): active: 14%.
Turning to `COC(=O)CCC1(C(=O)O)CCOC(C)(C)C1` (stereo unspecified), the survival was inactive: 72%.
On to `Cc1ccc(C)c(Cn2c3ccccc3c3cnn(CC(=O)NCCc4ccccc4)c(=O)c32)c1`, for which the survival was inactive: 73%.
Next, `Cc1ccc(-n2nc(C)c3nc(CCC(=O)Nc4cccc(F)c4)c(=O)n(C)c32)cc1`: active: -5%; `Cc1cccc(CNC(=O)CCCN2C(=O)CCn3nc(-c4cccn4C)cc32)c1`: inactive: 92%.
The result for `CCOc1c(Cl)cc(C(=O)N(Cc2ccc(N(C)C)cc2)Cc2ccco2)cc1Cl` reads inactive: 82%; that for `COc1ccc(CNC(=O)C2CCCN(c3nnc(C)c4c(C)n(-c5ccc(C)cc5)nc34)C2)cc1` (stereo unspecified), inactive: 101%; that for `CCC(Sc1nnc(-c2ccc(OC)c(OC)c2)c(-c2ccc(OC)c(OC)c2)n1)C(=O)NC1CCCC1` (stereo unspecified), inactive: 94%.
The result for `O=C(NCCc1ccccc1)c1ccc(Cn2c(SCc3ccccc3)nc3cccnc32)cc1` reads inactive: 117%; that for `Cc1cccn2c(=O)cc(CSc3nnc(NC(=O)c4ccc(F)cc4)s3)nc12`, inactive: 83%; that for `Oc1ccc(Br)cc1C=Nc1cccc(-c2nc3ccccc3o2)c1`, inactive: 101%.
Take `CCOc1ccc2nc(NCCNC(=O)NCc3ccccc3)c(C#N)cc2c1`: the survival is inactive: 98%.
Turning to `CCCOc1ccc(Oc2nc(NCC(C)C)nc(N(C)C)n2)nn1`, the survival was inactive: 82%.
The result for `CCc1ccc(NC(=O)C(Cc2ccccc2)NS(=O)(=O)c2ccc3c(c2)c(=O)n(C)c(=O)n3C)cc1` (stereo unspecified) reads active: 45%.
Turning to `CNC(=O)c1cnc2sc(N3CCCCCC3)nn2c1=O`, the survival is inactive: 115%.
In the case of `COc1ccc(C(=O)Nc2nc3ccccc3n2CCOc2ccc(Cl)cc2)cc1`, the survival is active: -5%.
On to `CCOc1ccc(N(CC)C(=O)CCc2nc(-c3ccccc3F)no2)cc1`, for which the survival was inactive: 46%.
The result for `Cc1ccc(NC(=O)Cn2nc3c(cc2=O)CCCC3)cc1Cl` reads inactive: 93%; that for `COc1cc(CNCCSc2nnnn2C)ccc1OCc1ccc(Cl)cc1Cl`, active: 30%.
On to `COc1ccc2nc(SC)nc(C)c2c1`, for which the survival was inactive: 67%.
The result for `CCN(C(=O)CSc1nc2ccccc2nc1Cc1ccc(F)cc1)c1cccc(C)c1` reads inactive: 86%; that for `Cc1cccc(C)c1NC(=O)c1sc(-n2nc(C)c(Cc3ccc4c(c3)OCO4)c2C)nc1C`, inactive: 97%.
Next, `CC1(C)Cc2ccccc2C(N/N=C/c2ccncc2)=N1`: inactive: 66%; `Clc1ccc(NCc2nc3ccccc3n2CCOc2ccccc2)cc1`: inactive: 50%; `COc1ccc(Cl)cc1NC(=O)Cn1c(=O)c2ccccc2n2nncc12`: inactive: 71%.
The result for `O=C(O)c1ccc(OCOc2ccc(C(=O)O)c(C(=O)O)c2)cc1C(=O)O` reads inactive: 96%; that for `Cc1ccccc1C(=O)N1c2ncnn2C2(CCCCC2)[C@@H]2CCCC[C@@H]21`, inactive: 89%.
As to `CCc1nc(-c2ccc(C)c(S(=O)(=O)N3CCN(c4ccc(C(C)=O)cc4)CC3)c2)no1`, the survival was inactive: 77%.
Next, `O=C(c1ccc2c(c1)OCCO2)C1CCCCC1`: inactive: 83%.
The result for `O=C(NCCn1cc(SCc2ccc(F)cc2)c2ccccc21)c1cccs1` reads inactive: 50%; that for `CCn1cc(C(=O)N2CCN(c3cc(Cl)ccc3C)CC2)c(=O)c2cc(S(=O)(=O)N3CCCCC3)ccc21`, inactive: 76%; that for `COC(=O)C1=C(C)N(C(C)C)C(=O)C1(NC(=O)c1ccc(C(C)(C)C)cc1)C(F)(F)F` (stereo unspecified), inactive: 81%.
Next, `CC(=O)c1ccc(NC(=O)CCc2c(C)nn(-c3ccc4nnc(C)n4n3)c2C)cc1`: inactive: 84%; `CCc1ccc(NC(=O)Cn2cc(S(=O)(=O)c3ccc(F)cc3)c(=O)c3cc(OC)ccc32)cc1`: inactive: 83%.
For the molecule `CC(C)CC(C(=O)NCC1CCN(Cc2ccc(F)cc2)CC1)N1Cc2ccccc2C1=O` (stereo unspecified), the survival was inactive: 94%.
For `COc1ccc(NC(=O)C2CCC(CNS(=O)(=O)c3ccc(Br)s3)CC2)c(OC)c1` (stereo unspecified), the survival is inactive: 74%.
For the molecule `CCOC(=O)C1(Cc2ccc(O)cc2)NC(c2ccco2)C2C(=O)N(c3ccccc3F)C(=O)C21` (stereo unspecified), the survival was inactive: 107%.
The result for `COc1cc(NC(=O)N2CCC(CN3CCCCCC3)CC2)cc(OC)c1OC` reads inactive: 88%.
The result for `Cc1cccc(S(=O)(=O)c2cn(C)c3cc(N4CCN(c5ccccc5)CC4)c(F)cc3c2=O)c1` reads inactive: 86%; that for `Cc1ccc(Cn2c(C)c3cnn(CC(=O)NCCc4ccc(Cl)cc4)c(=O)c3c2C)cc1`, inactive: 61%.
Next, `COc1cccc(CCNC(=O)c2cnc3sc(N4CCOCC4)nn3c2=O)c1`: inactive: 120%; `Cc1ccc(NC(=O)CSc2nc(-c3ccco3)nc3cc(=O)[nH]n23)cc1`: inactive: 83%.
For the molecule `CCOc1ccc(C(=O)Nc2ccc(-n3nncc3-c3ccc(OC)cc3)cc2)cc1`, the survival is inactive: 67%.
Take `Cn1nnnc1SCCNCc1ccc(Cl)c(Cl)c1`: the survival was inactive: 56%.
With `COc1ccccc1NC(=O)C1=C(C)Nc2nc(-c3ccco3)nn2C1c1ccccc1F` (stereo unspecified), the survival was inactive: 73%.
`CCCc1cc(=O)[nH]c(Nc2ccc(OCC)cc2)n1`: the survival was inactive: 58%.
The result for `Cc1ccc(-c2nc(N3CCCC(C)C3)c3ccccc3n2)cc1` (stereo unspecified) reads active: -2%; that for `CCc1ccccc1NC(=O)CSc1nc2c(oc3ccccc32)c(=O)n1C`, inactive: 86%.
The result for `Cc1nn(C)c2c1c(-c1ccccc1)cc(=O)n2CC(=O)NC(C)C` reads inactive: 101%.
Next, `COc1cccc(CNC(=O)C2CCCN(c3nc4ccccc4n4cccc34)C2)c1` (stereo unspecified): inactive: 75%; `Cc1ccc(CN2CCCn3nc(C(=O)NCCc4ccccc4Cl)cc3C2=O)cc1`: inactive: 70%; `COc1ccc(CCNCc2ccc3c(c2)n(C)c(=O)n3C)cc1OC`: inactive: 103%.
As for `Cc1ccc(CNC(=O)c2ccc3c(O)c(S(=O)(=O)c4ccc(Cl)cc4)c(=O)[nH]c3c2)cc1`, the survival was inactive: 84%.
With `CCOC(=O)c1c(S(=O)(=O)N2CCCC(C(=O)NCc3ccccc3OC)C2)c(C)n(C)c1C` (stereo unspecified), the survival was inactive: 82%.
The result for `CCc1nc(SC)ncc1C(=O)N1CCN(c2cc(C)ccc2C)CC1` reads inactive: 87%; that for `Cc1ccc(NC(=O)c2ccc(=O)n(Cc3ccccc3C)c2)c(C)c1`, inactive: 71%.
`Cc1ccc(CN2CCCn3nc(C(=O)NCCc4cccc(C)c4)cc3C2=O)cc1`: the survival is inactive: 83%.
Consider `CCCCN(CC)CCCNC(=O)Cn1ncc2c3ccccc3n(Cc3ccc(F)cc3)c2c1=O`, for which the survival was inactive: 96%.
Regarding `O=C(Nc1ccc2nc(-c3ccccc3)[nH]c2c1)c1ccco1`, the survival was active: 1%.
In the case of `Cn1c(=O)c(=O)n(C)c2cc(S(=O)(=O)N3CCN(c4ccccc4)CC3)ccc21`, the survival was inactive: 92%.
Take `CC(NC(=O)c1ccc2c(c1)sc1nc(-c3ccccc3)cn12)C12CC3CC(CC(C3)C1)C2` (stereo unspecified): the survival is inactive: 73%.
With `COc1ccc(C)cc1NC(=O)c1cc(S(=O)(=O)N2CCN(c3cccc(C)c3C)CC2)ccc1F`, the survival is inactive: 107%.
The result for `Clc1ccc(Nc2c(-c3ccccc3Cl)nc3ccc(Cl)cn23)cc1` reads inactive: 45%; that for `Cc1nc(NCCCCCO)c2nnn(Cc3ccc(F)cc3)c2n1`, inactive: 91%.
As for `Cc1ccc(C(=O)Nc2cccc(C(=O)OCc3cc(=O)n4nc(C5CC5)sc4n3)c2)cc1`, the survival is inactive: 81%.
The result for `O=C(CNC(=O)c1cccs1)c1ccc(F)cc1` reads inactive: 77%; that for `CCCOc1ccc(C2CC(=O)Nc3c2c(=O)n(C)c(=O)n3C)cc1OC` (stereo unspecified), inactive: 104%.
Next, `COCC(C)Nc1ncnc2c1cnn2-c1ccc(C)c(C)c1` (stereo unspecified): inactive: 80%.
The result for `COc1ccc(-n2nc(C(=O)NCc3ccc(F)cc3Cl)c3c4ccccc4n(C)c3c2=O)cc1Cl` reads inactive: 93%; that for `CCOc1ccc(N2CC(NC(=O)C3CC3)CC2=O)cc1` (stereo unspecified), inactive: 80%.
For the molecule `O=S(=O)(NC1CC2CCC1C2)c1ccc2c(c1)OCCO2` (stereo unspecified), the survival was inactive: 78%.
In the case of `NC(Cc1ccc2nonc2c1)C(=O)O` (stereo unspecified), the survival is inactive: 100%.
The result for `COCCNC(=O)CN1C(=O)c2cccnc2Oc2ccc(Cl)cc21` reads inactive: 85%.
For the molecule `CCOc1ccc(NC(=O)N2CCN3CCCCC3C2)cc1` (stereo unspecified), the survival is inactive: 95%.
For the molecule `CCOC(=O)c1ccc(N2C(=O)c3n[nH]c(-c4ccco4)c3C2c2cccc(O)c2)cc1` (stereo unspecified), the survival is active: -8%.
As to `COc1ccc(S(=O)(=O)NCc2nc3nc(C)cc(C)n3n2)cc1OC`, the survival was inactive: 85%.
Regarding `COc1ccc(Nc2c3c(nc4nncn24)CCC3)cc1OC`, the survival is inactive: 70%.
On to `Cc1ccc(Nc2ncccc2C(=O)NC2CCCCC2)cc1`, for which the survival was inactive: 82%.
The result for `O=C(CN(Cc1ccccc1Cl)C(=O)c1ccc(CN2CCOCC2)o1)NCc1ccccc1` reads inactive: 105%; that for `CCc1nn(CC(=O)Nc2ccc(NC(C)=O)cc2)c(=O)c2cc3sccc3n12`, inactive: 87%.
Consider `COc1ccc(CNC(=O)CSc2c3c(nc4ccc(Cl)cc24)CCCC3)cc1`, for which the survival is inactive: 77%.
Next, `O=C(CCCn1c(=O)c2cccn2c2ccccc21)NCc1ccccc1Br`: active: 43%; `Cc1ccc(Nc2sc(C(=O)c3ccccc3)c(N)c2C(N)=O)cc1`: inactive: 124%.

The values above are taken from PubChem BioAssay AID463173 (ICCB-Longwood Screening Facility, Harvard Medical School, 2010).
